In article PMC6823436, “Phase separation of Polo-like kinase 4 by autoactivation and clustering drives centriole biogenesis” (Nature Communications, 2019) one finds binding data, which are given here for three molecules.

These are yes or no findings as the source states them, for the method shown. In cells and extracts the contact can be indirect. Some results given as binding are weak or reduced against the parent protein; the word gives no strength.

The target in assay [1] is T1, Plk4 CP (condensation-proficient mutant S698E, S700E, T704E, T707D), full length (human) (UniProt O00444).
T1 sequence: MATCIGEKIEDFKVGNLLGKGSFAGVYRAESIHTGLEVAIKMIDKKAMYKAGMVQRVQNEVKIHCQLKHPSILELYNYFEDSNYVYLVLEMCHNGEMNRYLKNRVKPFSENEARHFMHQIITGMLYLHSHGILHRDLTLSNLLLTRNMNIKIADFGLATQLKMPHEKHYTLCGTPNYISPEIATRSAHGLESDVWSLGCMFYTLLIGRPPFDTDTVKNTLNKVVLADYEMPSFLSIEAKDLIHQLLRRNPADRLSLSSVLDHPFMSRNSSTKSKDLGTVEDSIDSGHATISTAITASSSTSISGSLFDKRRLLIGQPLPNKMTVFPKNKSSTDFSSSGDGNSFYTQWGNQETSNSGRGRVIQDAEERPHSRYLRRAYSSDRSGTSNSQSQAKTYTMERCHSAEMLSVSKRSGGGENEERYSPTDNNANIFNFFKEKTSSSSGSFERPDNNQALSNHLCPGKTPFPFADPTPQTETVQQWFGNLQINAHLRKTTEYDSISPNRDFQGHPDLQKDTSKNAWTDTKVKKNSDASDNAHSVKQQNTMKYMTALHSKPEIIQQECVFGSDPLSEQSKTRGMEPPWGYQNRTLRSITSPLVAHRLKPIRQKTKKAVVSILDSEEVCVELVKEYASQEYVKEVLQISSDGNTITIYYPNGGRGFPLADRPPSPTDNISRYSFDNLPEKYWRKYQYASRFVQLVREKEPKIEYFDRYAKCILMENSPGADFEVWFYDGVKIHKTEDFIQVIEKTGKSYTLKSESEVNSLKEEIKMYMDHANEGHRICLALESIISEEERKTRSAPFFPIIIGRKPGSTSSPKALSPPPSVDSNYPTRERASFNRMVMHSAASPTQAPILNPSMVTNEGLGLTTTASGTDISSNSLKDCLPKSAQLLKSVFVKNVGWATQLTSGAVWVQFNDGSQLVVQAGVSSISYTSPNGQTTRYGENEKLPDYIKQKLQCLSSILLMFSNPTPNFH
Nature of the assay: co-IP; IP performed with a mixture of individually transfected lysates.

Assay [2] addresses T2, Plk4 KM CP (K41M, S698E, S700E, T704E, T707D), full length (human) (UniProt O00444).
T2 sequence: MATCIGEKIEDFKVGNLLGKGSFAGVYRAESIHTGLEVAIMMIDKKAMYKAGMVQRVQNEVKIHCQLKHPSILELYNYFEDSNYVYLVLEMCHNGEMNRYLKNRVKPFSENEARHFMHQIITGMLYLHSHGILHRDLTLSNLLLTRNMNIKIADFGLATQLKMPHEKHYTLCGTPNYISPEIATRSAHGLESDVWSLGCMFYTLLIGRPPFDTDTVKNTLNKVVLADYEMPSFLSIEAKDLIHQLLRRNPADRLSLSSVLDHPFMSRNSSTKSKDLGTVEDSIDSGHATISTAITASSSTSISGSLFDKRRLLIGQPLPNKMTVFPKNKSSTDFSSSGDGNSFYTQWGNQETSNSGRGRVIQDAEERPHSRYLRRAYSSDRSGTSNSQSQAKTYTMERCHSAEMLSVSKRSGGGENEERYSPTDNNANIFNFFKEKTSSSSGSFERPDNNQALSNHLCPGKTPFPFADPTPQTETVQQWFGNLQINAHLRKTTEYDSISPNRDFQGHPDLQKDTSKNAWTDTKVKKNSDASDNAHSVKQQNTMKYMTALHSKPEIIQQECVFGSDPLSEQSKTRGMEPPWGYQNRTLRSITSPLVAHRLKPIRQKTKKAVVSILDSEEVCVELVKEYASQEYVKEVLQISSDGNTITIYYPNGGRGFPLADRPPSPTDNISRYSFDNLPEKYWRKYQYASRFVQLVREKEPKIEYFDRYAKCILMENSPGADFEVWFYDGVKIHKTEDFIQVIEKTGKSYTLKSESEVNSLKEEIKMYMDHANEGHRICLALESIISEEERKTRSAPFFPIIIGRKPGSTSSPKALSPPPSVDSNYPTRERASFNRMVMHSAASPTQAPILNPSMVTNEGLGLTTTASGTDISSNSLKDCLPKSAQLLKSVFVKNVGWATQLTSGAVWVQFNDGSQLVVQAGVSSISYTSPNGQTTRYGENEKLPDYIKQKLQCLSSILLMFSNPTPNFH
Nature of the assay: co-IP; HEK293T cells cotransfected with the constructs; IP in TBSN buffer (20 mM Tris-Cl pH 8.0, 150 mM NaCl, 0.5% NP-40, 5 mM EGTA, 2 mM MgCl2, 1.5 mM EDTA, 2 mM DTT, 20 mM PNPP); IP samples treated with lambda phosphatase where indicated before SDS-PAGE and immunoblotting. In general terms: Immunoblotting shows a protein as a band on a membrane.

In assay [3] the target is T3, Plk4 K41M (KM), kinase-inactive, full length (human) (UniProt O00444).
T3 sequence: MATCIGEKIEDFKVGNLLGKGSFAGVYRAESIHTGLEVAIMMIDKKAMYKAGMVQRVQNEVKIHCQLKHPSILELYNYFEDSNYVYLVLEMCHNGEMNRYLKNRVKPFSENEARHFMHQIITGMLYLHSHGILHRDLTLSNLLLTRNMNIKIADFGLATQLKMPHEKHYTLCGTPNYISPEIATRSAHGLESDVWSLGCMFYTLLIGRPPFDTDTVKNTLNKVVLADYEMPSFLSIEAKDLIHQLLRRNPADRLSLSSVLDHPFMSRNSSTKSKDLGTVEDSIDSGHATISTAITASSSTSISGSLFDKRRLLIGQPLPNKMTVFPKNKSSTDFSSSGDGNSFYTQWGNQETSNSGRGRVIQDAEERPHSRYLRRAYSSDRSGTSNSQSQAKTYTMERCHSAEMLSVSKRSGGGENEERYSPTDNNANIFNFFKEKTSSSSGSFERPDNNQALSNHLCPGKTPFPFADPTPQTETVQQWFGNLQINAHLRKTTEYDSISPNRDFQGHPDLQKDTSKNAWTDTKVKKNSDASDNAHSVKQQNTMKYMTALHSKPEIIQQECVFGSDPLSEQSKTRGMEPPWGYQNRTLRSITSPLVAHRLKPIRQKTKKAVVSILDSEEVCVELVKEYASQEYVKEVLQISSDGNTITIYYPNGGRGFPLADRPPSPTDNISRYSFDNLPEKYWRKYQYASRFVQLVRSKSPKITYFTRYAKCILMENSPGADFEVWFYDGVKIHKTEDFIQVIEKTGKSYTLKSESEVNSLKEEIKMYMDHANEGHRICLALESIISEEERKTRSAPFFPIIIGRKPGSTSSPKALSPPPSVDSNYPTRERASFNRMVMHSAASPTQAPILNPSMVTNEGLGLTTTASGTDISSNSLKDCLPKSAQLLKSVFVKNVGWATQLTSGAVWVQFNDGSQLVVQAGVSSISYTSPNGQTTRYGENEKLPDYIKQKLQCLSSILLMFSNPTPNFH
Described as above.

Assay [4] addresses T1, Plk4 CP (condensation-proficient mutant S698E, S700E, T704E, T707D), full length (human). Described as above.
The target of assay [5] is T4, Polo-like kinase 4 (Plk4) WT, full length (human) (UniProt O00444).
T4 sequence: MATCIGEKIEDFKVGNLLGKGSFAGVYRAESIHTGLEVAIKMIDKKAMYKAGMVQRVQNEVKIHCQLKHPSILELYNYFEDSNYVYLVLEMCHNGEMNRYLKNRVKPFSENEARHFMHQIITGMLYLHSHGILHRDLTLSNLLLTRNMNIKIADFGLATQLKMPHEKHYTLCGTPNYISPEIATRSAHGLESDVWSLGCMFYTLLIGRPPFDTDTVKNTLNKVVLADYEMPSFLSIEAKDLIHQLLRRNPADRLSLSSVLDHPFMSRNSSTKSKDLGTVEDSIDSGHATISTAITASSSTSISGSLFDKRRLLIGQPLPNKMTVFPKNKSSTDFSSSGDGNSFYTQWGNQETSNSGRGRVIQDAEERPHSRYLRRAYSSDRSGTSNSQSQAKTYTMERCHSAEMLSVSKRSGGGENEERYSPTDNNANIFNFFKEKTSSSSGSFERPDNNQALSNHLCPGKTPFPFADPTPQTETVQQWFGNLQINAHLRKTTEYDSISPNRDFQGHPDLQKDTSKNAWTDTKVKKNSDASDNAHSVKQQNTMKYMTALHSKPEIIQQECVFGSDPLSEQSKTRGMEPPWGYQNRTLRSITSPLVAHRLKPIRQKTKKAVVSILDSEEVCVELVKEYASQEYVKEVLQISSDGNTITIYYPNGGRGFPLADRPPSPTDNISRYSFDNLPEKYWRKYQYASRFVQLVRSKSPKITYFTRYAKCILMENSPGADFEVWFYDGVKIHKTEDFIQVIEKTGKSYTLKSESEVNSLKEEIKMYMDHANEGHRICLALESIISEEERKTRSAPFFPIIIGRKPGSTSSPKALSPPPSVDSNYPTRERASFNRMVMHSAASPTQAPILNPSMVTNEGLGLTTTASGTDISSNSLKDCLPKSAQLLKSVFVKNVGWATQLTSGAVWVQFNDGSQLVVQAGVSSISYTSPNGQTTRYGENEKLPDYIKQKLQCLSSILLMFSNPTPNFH
The description is as above.

As to “Cep152 (construct not stated) (from UniProt O94986 1-1710)”, the binding result in assay [1] was “no binding”.

“full-length Cep152 (from UniProt O94986 1-1710)”: the binding entry in assay [2] was “no binding”; in assay [3], “binds”; in assay [4], “no binding”; in assay [5], “binds”.

B1: Cep152 (1–217) N-terminal fragment (domain or fragment, UniProt O94986 1-217)
chain: MSLDFGSVALPVQNEDEEYDEEDYEREKELQQLLTDLPHDMLDDDLSSPELQYSDCSEDGTDGQPHHPEQLEMSWNEQMLPKSQSVNGYNEIQSLYAGEKCGNVWEENRSKTEDRHPVYHPEEGGDEGGSGYSPPSKCEQTDLYHLPENFRPYTNGQKQEFNNQATNVIKFSDPQWNHFQGPSCQGLEPYNKVTYKPYQSSAQNNGSPAQEITGSDT
In the case of B1, the binding result is reported as “no binding” in assay [2], “binds” in assay [3], “no binding” in assay [4] and “binds” in assay [5].
